According to the supplement of paper PMC11417369:
Some of the results follow.

Each sequence was assayed on PfHDP1 homeodomain (GST-tagged) (assay: gcPBM binding intensity (ln(normalized median fluorescence intensity)); higher = stronger DNA binding).
Method in brief: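 Each value is the highest Masliner-normalised natural-log median intensity across replicate spots of either orientation of a probe. The probes were primer-extended double-stranded 36-bp intergenic genomic sequences on an Agilent 4 × 180k array, alongside negative controls, exposed for 1 h to GST-tagged P. falciparum DNA-binding domains expressed in E. coli. Bound protein was picked up with Alexa488 anti-GST antibody and scanned at 488 nm.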

| Sequence | gcPBM binding intensity (ln) |
| --- | --- |
| GTAATCCACAAACACACACACATACACATATATATA [CACACA_site2728] | 7.3 |
| ATATATTACAATATATGTACTTAATTTGCTTAAATA [XGTACX_site7912] | 6.21 |
| AGAGGAAAAATAAAAGGAAAAAAGAAAATAATATTG [CACACA_negctrl_site852] | 6.2 |
| ATAATATTTTAGAGCAGTACACTTTTATATTTATTG [XGTACX_site5728] | 6.67 |
| TAAAACAGAATGAGGAGTACAAAAAGAAGAAAAGGG [XGTACX_site1246] | 7.31 |
| AAAATAAATATTACATGTACATATATATATATATAT [XGTACX_site8492] | 9.27 |
| TCCATAAATAATTGTAGTACACATACTATGTGACAT [XGTACX_site7268] | 6.48 |
| AAAAGTAAAAAAAGCACACACGAAAAAAAATAAAAA [CACACA_site5264] | 6.72 |
| TATTAAAAAAAAAAATAAAAAAATAAAATAAAATAA [CACACA_negctrl_site580] | 6.36 |
| AACTATAAAAGTTTTACACACTGTTTTTAAATAATG [CACACA_site7686] | 6.62 |
| TTATGCATAAAAGGTGGTACTCCGTATATACATTCT [XGTACX_site4354] | 6.62 |
| ATATATATATATATGTGTACATATAAGATAGAAGAA [XGTACX_site3198] | 9.31 |
| TATTTATTTATAAATGCATGTCGCTCTTTTTATTAC [TGCATGCA_site626] | 6.36 |
| ATTATTATAGATATAACACACATAATTACATACTTA [CACACA_site6837] | 6.2 |
| AATATATCATAATGATGTACAAGTAAAACCGTTACA [XGTACX_site4280] | 6.56 |
| AAAAACTTATATGATACACACGATAAACAAAATAAA [CACACA_site1039] | 6.73 |
| TTTGTGCCTATAAATTAACACACAGAAATATATAGA [CACACA_site8175] | 6.35 |
| ATTCTTTTAAACAGTACACACACACCGATATATATA [CACACA_site8213] | 7.2 |
| AATATATATATATATACATGCATATATTCCTTCCTT [TGCATGCA_site890] | 6.65 |

| Sequence | gcPBM binding intensity (ln) |
| --- | --- |
| TAACACATAAATAAATATATACATATATATAAAATA [CACACA_negctrl_site375] | 6.36 |
| ATAAAATAAAATTGGTGTACTTTTGATAAAATAAAA [XGTACX_site4264] | 6.17 |
| GATCTATATATCATTACACACTTGAATTACTTAAAA [CACACA_site21] | 6.48 |
| CAAAAATACATTATAATAATATGCACAATAATAAAT [XGTACX_negctrl_site263] | 9.11 |
| TATATTTACTCTAAGTGTACATATTATTTTATAATA [XGTACX_site2046] | 6.22 |
| TTTTTTTTTTTTATTTGTACACATTTTCATATTTTT [XGTACX_site4406] | 6.48 |
| TATATATATATGTGCACACATAAAGATATTATTTTT [CACACA_site3733] | 10.1 |
| CACCCTTTGTTTTAGAGTACATATGTATATACGTAA [XGTACX_site7964] | 6.75 |
| GATTAAAATCAAAGGTGTACGCACAAATAAGTCCCA [XGTACX_site4360] | 6.65 |
| TATATATATTTATGTACACACATATATACCTTTCAT [CACACA_site5479] | 6.74 |
| ACAAAATTTACAAAATGTACAAAGTATGTGTTTTAT [XGTACX_site6462] | 6.13 |
| TTTCCGGTAATATGGAGATATATGTGGGTTTTTTTT [GTGCAC_negctrl_site374] | 6.41 |
| ATATTTTTTTTTTTCACACACATTTATATTGTATTA [CACACA_site5695] | 6.84 |
| AGAAAAAAGAGGGATACACACAAACATATATTTATA [CACACA_site7122] | 6.5 |
| ATAATATTTTATTATACATGCAAATTATTATATATA [TGCATGCA_site40] | 6.25 |
| TTTCTTTGTATTTATAGTACATATTTTAATAACTGC [XGTACX_site6673] | 6.26 |
| TAAAAATTAAAAAGGGTGCAAAAAAAAAAAAAAAAA [GTGCAC_site9733] | 8.23 |
| TATTAATTATAAGATGCATGTGCAAAAATATGTTCC [TGCATGCA_site51] | 10.2 |
| TTATTATTATGATTATTATGATGATTATACAACTGT [TGCATGCA_negctrl_site241] | 6.26 |

| Sequence | gcPBM binding intensity (ln) |
| --- | --- |
| AATATACATAACAAGGTGCAAAAAATATTGTTCATA [GTGCAC_site9499] | 9.48 |
| AAAAGACATTTTTTTTTATAAATACACACGTACGTG [TGCATGCA_negctrl_site281] | 6.49 |
| AGGAGGAACAAACAAAACAATAAAAATTATAATAAA [GTGCAC_negctrl_site206] | 6.65 |
| TTCAAAGACACAATCACACACATACATAAATATACA [CACACA_site687] | 6.68 |
| TATTAAAATATTCTCACACACCAAAATATGTATGTA [CACACA_site6565] | 6.21 |
| AAAAAAAAAAAAAAAAAAAGAAAAGAAAATAGGGTT [GTGCAC_negctrl_site421] | 6.72 |
| ATTATATTAATTTATAGTACAATATTTATATATATG [XGTACX_site4668] | 6.36 |
| TATATATTACTTTTTTGTACGAATTTTACAACTACG [XGTACX_site3473] | 6.65 |
| TGTCTTATTTATATTACACACTATATGAAAAAATAT [CACACA_site6807] | 6.52 |
| AAAGGATATATCCAGAGTACATATTCTGTGTAATAC [XGTACX_site1547] | 6.73 |
| ATAATTGTTTCTTTCTCCTTTTTATTTCATTTTAAA [CACACA_negctrl_site964] | 6.61 |
| CACAAAAAAAATTATACACACACACCCATATATATA [CACACA_site8255] | 7 |
| TATTCATCACTTTTTTGTACTTATGGATAAAATTTT [XGTACX_site3349] | 6.89 |
| TATATAATAAGAAAATATGTGCGTAGTTCAGCAAAA [XGTACX_negctrl_site304] | 7.48 |
| AAAATAAGAAAACAAATGCACACCATTTATATAGAT [CACACA_site1055] | 8.92 |
| GAAAAATATATTCTGGTGCATGAATAAAATCATAAA | 9.33 |
| AATTGGATAAACCAATTGGATTATAATACGATATAT [CACACA_negctrl_site275] | 6.18 |
| GAAAAAGATGCGCATACACACAGATGAATAACAAAA [CACACA_site1628] | 7.73 |
